# Measurements published in PubChem BioAssay AID1347073 (National Center for Advancing Translational Sciences (NCATS), 2019).
# In all, about 45,000 compounds went through this assay and about 200 (0.44%) were called active. Not shown: some 7% with an inconclusive outcome. Calls follow the shape of the dose curve; as a rule, active = well fitted activation curve with a large enough effect; inconclusive = small, poorly fitted or top-dose-only effect; inactive = no such curve, though single readings can be large or run the other way. This is one part of the list.
# Test: qHTS of TDP-43 Inhibitors: NCGC Sytravon Library Screen; also: 0% is about no effect; nearly all actives have a fitted effect of over 55% in size
# Details: yeast TDP-43 toxicity rescue, BacTiter-Glo growth, 24 h; series mostly up to 46.1 µM; growth rescue (activation): at the top concentration
# How it was run: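 TDP-43-expressing yeast, pregrown in raffinose, seeded at OD600 0.02 in galactose medium with compound for 24 hr at 30 deg C. Growth read by BacTiter-Glo luminescence, so rescue of toxicity appears as activation.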
row,Structure (SMILES),growth rescue (activation)
1,C(=N\Nc1nc(Nc2ccccc2)nc(Nc2ccccc2)n1)/c1ccncc1,inactive: 2.28%
2,CCN(CC)C(=O)Oc1c(Cl)cc(Cl)c2cccnc12,inactive: 5.89%
3,Cc1cc(-c2nnc(CCC(=O)NCCc3ccccc3F)o2)no1,inactive: -20.9%
4,COc1ccc(-n2c(=S)[nH]c3cc(C(=O)NCc4cccnc4)ccc3c2=O)c(OC)c1,inactive: -0.693%
5,CCc1cc(C(=O)Cc2nc3ccccc3s2)c(O)cc1OCC(=O)O,inactive: 17%
6,Cc1c(Nc2nc(-c3cccc([N+](=O)[O-])c3)cs2)c(=O)n(-c2ccccc2)n1C,inactive: 14.9%
7,CCCn1c(=O)c(C(=O)N/N=C/c2ccc(F)cc2)c(O)c2ccccc21,inactive: -19.3%
8,Cn1cc(CN2CCC(C(=O)NC(c3ccc(-c4ccccc4)cc3)c3cnccn3)CC2)c2ccccc21 (configuration not stated),inactive: -6.74%
9,COc1ccc(NC(=S)NC2CC3CCCC(C2)N3C2CC2)cc1 (configuration not stated),inactive: 7.66%
10,COc1ccc(NC(=O)Nc2c(C)n(-c3ccccc3)c(=O)n2C)cc1OC,inactive: 9.15%
11,CC(C)O/N=C1\C(=O)N(c2ccccc2)c2ccccc21,inactive: 31.3%
12,CCCCCOc1ccc(C(=O)Nc2ccc(S(=O)(=O)Nc3cc(C)on3)cc2)cc1,inactive: 1.99%
13,C=CCn1c(SCC(=O)Nc2cc(C)on2)nnc1C1COc2ccccc2O1 (configuration not stated),inactive: -2.01%
14,O=C(CCc1nnc(-c2ccsc2)o1)N1CCCCC1CCn1ccnc1 (configuration not stated),inactive: -4.04%
15,CC(c1ccco1)N(C(=O)c1ccccc1NS(=O)(=O)c1ccc(Cl)cc1)c1ccccn1 (configuration not stated),inactive: 25.1%
16,COc1cc2c(cc1OC)C(c1cccc(F)c1)CC(=O)N2 (configuration not stated),inactive: 0.296%
17,Cc1cc(C)cc(NC(=O)CNS(=O)(=O)c2ccc3nc(C)sc3c2)c1,inactive: 1.19%
18,O=C(NC(N1CCCCCC1)C(Cl)(Cl)Cl)c1ccccc1Cl (configuration not stated),inactive: 2.05%
19,Nc1cccc(-c2cccc3nncn23)c1,inactive: 9.54%
20,O=C(COC(=O)[C@@H]1CC(O)CN1S(=O)(=O)c1ccc2c(c1)OCCO2)NCc1ccc(F)cc1 (some centres not stated),inactive: 8.37%
21,Cc1ccc2cc(NC(=O)C3(C)CCN3C(C)C)ccc2n1 (configuration not stated),inactive: 11.3%
22,Cc1ccccc1C(=O)Nc1ccccc1C(=O)N1CCC(C)CC1,inactive: 14.2%

row,Structure (SMILES),growth rescue (activation)
1,COC1=C/C(=C/c2c(N)n3nc(-c4ccc(C)cc4)sc3nc2=O)C=CC1=O,inactive: -8.15%
2,Cn1c(SCC(=O)N2CCCC2=O)nc2ccccc21,inactive: 5.27%
3,Cc1nn(-c2ccccc2Cl)c(Cl)c1/C=N/Nc1nc2ccccc2s1,inactive: -22.6%
4,CCOc1ccc(S(=O)(=O)N(CC)CC(=O)N2CCOCC2)cc1C,inactive: 16%
5,CC(Nc1nc(-c2ccccc2F)nc2ccccc12)c1ccccc1 (configuration not stated),inactive: -9.18%
6,COc1ccc(/C=C(\C#N)C(=O)OCC(=O)NCc2ccccc2)cc1,inactive: 11.5%
7,Cc1ccc(S(=O)(=O)N(CC2CO2)c2ccccc2[N+](=O)[O-])cc1 (configuration not stated),inactive: 4.06%
8,CCOc1ccccc1N(CC(=O)N1CCCCCC1)S(=O)(=O)c1ccc(C)cc1,inactive: 19.9%
9,Cc1nnc(SCCOc2ccccc2)s1,inactive: 3.86%
10,COc1ccc(CN2CCN(CCCCOc3ccc(Cl)cc3)CC2)c(OC)c1OC,inactive: -9.16%
11,COc1ccc(CNS(=O)(=O)NCc2ccc(C)cc2)cc1,inactive: -7.7%
12,O=C(CSc1nncc2ccccc12)Nc1ccccc1,inactive: 3.84%
13,Cc1c(C)n(Cc2ccccc2)c2ccc(C(=O)OCCN(C)C)cc12,inactive: -2.02%
14,COc1cc(/C=N/NC(=O)C(=O)NCc2cccnc2)cc(OC)c1OC,inactive: 8.92%
15,CSc1ccc(CCNC(=O)C(C)n2nc(C)c3sc4ccccc4c3c2=O)cc1 (configuration not stated),inactive: 7.09%
16,COc1ccc(/C=N/NC(=O)CC(=O)N/N=C/c2ccc(OC)cc2)cc1,inactive: -9.85%
17,O=C(Nc1ccc(Cl)c(Cl)c1)Nc1ccc(N2CCCC2)c(S(=O)(=O)Nc2ccccc2Cl)c1,inactive: 15.5%
18,OC(COc1ccc2ccccc2c1Br)Cn1ccnc1 (configuration not stated),inactive: -13.1%
19,O=C1N/C(=N\N=C\c2cccs2)SC1Cc1ccc(Cl)cc1 (configuration not stated),inactive: -22%
20,O=C(COc1ccccc1[N+](=O)[O-])Nc1cc(Cl)ccc1C(=O)O,inactive: 3.02%
21,Cc1ccc(C(=O)OCc2c(C)noc2C)cc1NC(=O)c1ccco1,inactive: 9.08%
22,Nc1c(-c2ccccc2)c(CSc2nc3ccccc3[nH]2)nn1-c1cccc(C(=O)O)c1,inactive: 3.16%

row,Structure (SMILES),growth rescue (activation)
1,Cc1cc(C)c(S(=O)(=O)Nc2ccc(N3CCOCC3)cc2)c(C)c1,inactive: 14.1%
2,CCOc1ccc(S(=O)(=O)N2CCC(C(=O)NCc3ccncc3)CC2)cc1,inactive: 11.2%
3,CN(c1ccc(C(=O)N2CCOCC2)cc1)S(=O)(=O)c1cccs1,inactive: 2.6%
4,O=C(O)c1ccccc1C(=O)NCCc1ccc(Cl)cc1,inactive: 4.7%
5,Cc1ccc(NC(=S)NCc2ccccc2)cc1S(=O)(=O)N1CCCCC1,inactive: 0.881%
6,O=C(CSc1n[nH]c(-c2ccco2)n1)Nc1ccc(Br)cc1,inactive: 1.69%
7,O=C(C[n+]1ccc(C(=O)N/N=C/c2ccc(O)cc2)cc1)c1ccccc1,inactive: 14.1%
8,CN1C(=O)/C(=C\c2ccc(N(C)C)cc2)OC1=S,inactive: 1.54%
9,Cc1ccc(S(=O)(=O)NCC(C)n2nc(C)cc2C)cc1 (configuration not stated),inactive: 11.7%
10,Cc1ccc(S(=O)(=O)N2CCOCC2)cc1NC(=O)COC(=O)CNC(=O)c1ccc(Oc2ccccc2)cc1,inactive: 10.6%
11,CCOC(=O)C1(Cc2cccc(OC)c2)CCN(Cc2cccc(OCC)c2O)CC1,inactive: 3.76%
12,CC(=O)c1cccc(NC(=O)Cn2c(=O)oc3cc(S(=O)(=O)N4CCCC4)ccc32)c1,inactive: 10.3%
13,CC(=O)Nc1ccc(NC(=O)CCSCCc2ccccn2)cc1,inactive: 1.21%
14,O=C(O)CSC(C(=O)Nc1ccc(Br)cc1)c1ccccc1 (configuration not stated),inactive: 9.59%
15,COc1cc(C(C(=O)NCC2CCCO2)N(C(=O)Cn2nnc3ccccc32)c2ccc(OC)c(OC)c2)ccc1O (configuration not stated),inactive: 2.27%
16,O=C(CSc1cn[nH]n1)Nc1ccc(Cl)cc1Cl,inactive: 5.19%
17,N#Cc1ccc(COC(=O)c2cnc3ccccc3n2)cc1,inactive: 5.78%
18,CCCSc1nc2sc3c(c2c(=O)[nH]1)CC(C)(CC)OC3 (configuration not stated),inactive: -0.972%
19,CCOc1ccc2nc(COC(=O)c3cccc([N+](=O)[O-])c3)c(C(C)=O)[n+]([O-])c2c1,inactive: 7.57%
20,Cc1nc(/C(N)=N/OC(=O)Cc2ccccc2)no1,inactive: -9.53%
21,CCCn1c(SCC(=O)NC(=O)NC(C)(C)C)n[nH]c1=O,inactive: -8.43%
22,COc1ccc(CCCc2nc3ccccc3[nH]2)cc1,inactive: 2.2%

row,Structure (SMILES),growth rescue (activation)
1,COc1ccc(CNC(=O)CN(C(=O)CCC(=O)Nc2ccccn2)c2cccc(C)c2)cc1,inactive: 4.95%
2,CCN1CCN(C(=O)c2ccc(COc3ccc(Cl)cc3)o2)CC1,inactive: 13.8%
3,Cc1ccc(CNC(=O)CCCC(=O)c2ccccc2)cc1,inactive: 18.2%
4,COc1ccc(N2CCN(C(=O)C(Cc3ccccc3)NC(=O)c3ccccc3)CC2)cc1 (configuration not stated),inactive: 9.69%
5,Nc1nc(-c2ccccn2)nc(N)c1Cc1c(F)cccc1Cl,inactive: -12.8%
6,Cc1csc(NC(=O)CSc2nnc(-c3ccccn3)n2-c2ccc(C)c(C)c2)n1,inactive: 23.2%
7,O=C(N/C(=C/c1ccccc1)C(=O)N1CCCCC1)c1ccc(Br)o1,inactive: -4.2%
8,CCc1ccccc1NC(=O)C1CCN(c2cnccn2)CC1,inactive: 13%
9,O=C(C1CCN(S(=O)(=O)c2cccc3nonc23)CC1)N1CCCCC1,inactive: 11.8%
10,Cc1cccc(C)c1NC(=O)c1csc([C@H]2C[C@H](O)[C@@H](CO)O2)n1,inactive: 8.77%
11,CCC(=O)Nc1nnc(SCC(=O)NC2CCCC2)s1,inactive: -4.33%
12,N#CCN1CCN(CCC(=O)Nc2ccc(OCc3ccccc3)cc2)CC1,inactive: 0.398%
13,O=C1c2ccccc2C(=O)N1CC1=NCCc2ccccc21,inactive: 9.81%
14,O=C(COc1ccc(Cl)cc1Cl)N1CCN(c2ccccn2)CC1,inactive: -12.1%
15,COc1ccc(Cl)cc1CN1C(=O)NC2(CCCCCC2)C1=O,inactive: 5.63%
16,Cn1c(SCc2cc([N+](=O)[O-])cc3c2OCOC3)nnc1-c1ccccn1,inactive: -8.65%
17,O=C1/C(=C\c2ccco2)SC(=S)N1c1ccccc1,inactive: 9.38%
18,Cc1ccc(S(=O)(=O)N(C)C)cc1-n1c(SCC(=O)Nc2ccc(F)c(F)c2F)nc2ccccc2c1=O,inactive: 7.59%
19,COc1cc2ccccc2cc1C(=O)NC1CCCC1,inactive: 18.2%
20,Cc1ccc(NS(=O)(=O)c2cccc(C(=O)O)c2)cc1S(=O)(=O)N1CCOCC1,inactive: 0.621%
21,CC(OC(=O)c1cc(S(=O)(=O)N(C)c2ccccc2)ccc1Cl)C(=O)Nc1ccc2c(c1)OCCO2 (configuration not stated),inactive: 26.6%
22,COc1ccccc1NC(=O)Nc1cnccn1,inactive: 12.9%

row,Structure (SMILES),growth rescue (activation)
1,COc1ccc(C(=O)CCC(=O)NCCc2c[nH]c3ccccc23)cc1,inactive: 12.1%
2,CC(=O)Nc1ccc(Oc2cnccn2)cc1,inactive: 2.93%
3,COCCNC(=O)C(C)N(c1ccc(Oc2ccccc2)cc1)S(C)(=O)=O (configuration not stated),inactive: -16.1%
4,NS(=O)(=O)c1ccc(NCC2COc3ccccc3O2)c([N+](=O)[O-])c1 (configuration not stated),inactive: -9.42%
5,CC(NC(=O)C(=S)N1CCN(C)CC1)c1ccccc1 (configuration not stated),inactive: 8.36%
6,CC(=O)NCCc1ccc(C(=O)COC(=O)c2cc(C)oc2C)cc1,inactive: 10.3%
7,COC(=O)c1cnn2c1C(=O)N(Cc1cccs1)CC2,inactive: 20.6%
8,CCOC(=O)/C=C1\SCC(=O)N1CC(=O)NCCOC,inactive: -4.18%
9,COc1ccc(C(=O)C2CCCN(C(=O)CCC3=NNC(=O)CC3)C2)c(C)c1 (configuration not stated),inactive: -7.36%
10,Cc1cc(OCC(=O)OCC(=O)NCc2cccs2)ccc1Cl,inactive: -13.1%
11,CC(C)=CC(=O)OCC(=O)Nc1cccc([N+](=O)[O-])c1,inactive: 20.5%
12,CN(C)C(=O)c1ccc(N/C=C(\C=O)c2nc3ccccc3o2)cc1,inactive: -3.13%
13,Cc1cccc(OCC(O)Cn2c(N3CCCCC3)nc3c2c(=O)[nH]c(=O)n3C)c1 (configuration not stated),inactive: 1.3%
14,CC1(C)CC(=O)c2cnc3nc4ccccc4n3c2C1,inactive: 8.82%
15,CCOc1cc(/C=C2/C(=O)NN(c3cccc(Cl)c3)C2=O)ccc1O,inactive: -21.1%
16,COc1cc(-c2coc3c(C(=O)Nc4ccc(C(C)C)cc4)cccc23)ccc1O,inactive: 29.3%
17,COCCN(C(=S)Nc1ccccc1C)C(C)c1cccnc1 (configuration not stated),inactive: 11%
18,O=C(CN1CCN(C(=O)c2ccco2)CC1)N1CCc2[nH]c3ccccc3c2C1,inactive: -2.66%
19,CCOC(=O)N1CCC(NS(=O)(=O)c2cc(Br)cc3c2N(C(=O)CC)CC3)CC1,inactive: 7.51%
